Results: the supplement of paper PMC3334620
Over roughly 33,000 sequences, “E-score (-0.5 to 0.5)” has its median near -0.043; the highest 2% begin near 0.37. The list shows a part of the results.

molecular target: T1, Upc2 (UniProt Q12151); assay: PBM E-score (8-mer binding enrichment) (E-score (-0.5 to 0.5)); higher = stronger / more preferred TF binding; most listed sequences are background and not binding sites; settings: protein concentration: 200 nM; construct: GST-full length
T1 sequence: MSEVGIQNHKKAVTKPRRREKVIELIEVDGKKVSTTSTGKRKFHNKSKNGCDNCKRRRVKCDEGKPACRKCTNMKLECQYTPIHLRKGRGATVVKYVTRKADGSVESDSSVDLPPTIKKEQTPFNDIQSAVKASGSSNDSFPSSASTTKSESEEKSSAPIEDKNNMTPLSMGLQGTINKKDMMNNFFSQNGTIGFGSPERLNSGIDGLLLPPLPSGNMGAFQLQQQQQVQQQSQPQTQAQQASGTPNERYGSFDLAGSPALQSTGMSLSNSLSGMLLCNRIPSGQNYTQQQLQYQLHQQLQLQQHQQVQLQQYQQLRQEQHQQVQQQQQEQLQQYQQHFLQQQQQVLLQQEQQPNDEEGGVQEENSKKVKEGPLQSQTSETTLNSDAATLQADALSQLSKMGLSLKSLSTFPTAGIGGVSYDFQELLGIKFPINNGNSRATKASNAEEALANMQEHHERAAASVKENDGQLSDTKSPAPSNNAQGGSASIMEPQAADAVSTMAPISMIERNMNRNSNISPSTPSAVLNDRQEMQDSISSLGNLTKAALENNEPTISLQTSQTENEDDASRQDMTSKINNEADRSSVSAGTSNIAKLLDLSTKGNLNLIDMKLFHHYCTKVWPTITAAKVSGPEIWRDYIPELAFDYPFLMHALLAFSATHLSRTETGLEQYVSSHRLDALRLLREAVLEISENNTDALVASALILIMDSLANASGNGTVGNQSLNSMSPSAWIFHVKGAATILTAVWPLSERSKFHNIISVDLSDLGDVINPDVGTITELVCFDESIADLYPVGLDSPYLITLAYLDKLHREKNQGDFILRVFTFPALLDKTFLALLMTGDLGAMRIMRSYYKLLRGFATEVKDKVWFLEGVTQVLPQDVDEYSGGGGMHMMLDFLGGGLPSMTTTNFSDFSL
Procedure, shortened: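 Bound GST-tagged yeast transcription factors, applied at about 100-200 nM to double-stranded universal all-10-mer Agilent arrays, were detected with fluorescent anti-GST. Scans were normalised with masliner. A modified Wilcoxon-Mann-Whitney statistic, the E-score, was assigned to each ungapped eight-base word pooled with its reverse complement by the Universal PBM Analysis Suite.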

Going from CTCGTTGA to TCCAATCA, the “PBM E-score” value falls from 0.313 to -0.118.

First: ATTGACAG
Second: GAAAGTCC
The “PBM E-score” value of the first is higher: -0.0958 for the first, -0.273 for the second.

Going from GAATTCAC to GTATCCAA, the “PBM E-score” value falls from 0.036 to -0.0131.

Going from ATCCTCAA to GCAATCGA, the “PBM E-score” value rises from -0.16 to 0.122.

Compared with ATTACGCG, ACGTCATG is lower in “PBM E-score” value: 0.191 for the first, 0.0103 for the second.

Going from CGGGTAAC to ACCAGCGA, the “PBM E-score” value falls from 0.125 to -0.138.

First: CAGCCGCA
Second: ACCTTTGA
The “PBM E-score” value of the first is higher: -0.0445 for the first, -0.162 for the second.

First: GCCATTTA
Second: CAGCATCA
The “PBM E-score” value of the first is higher: -0.103 for the first, -0.19 for the second.

Going from TATTTTGA to CAAAGGCA, the “PBM E-score” value rises from -0.197 to -0.118.

Compared with TCGTCCAA, ATGGGAAT is lower in “PBM E-score” value: -0.0174 for the first, -0.1 for the second.

First: GCATGCCA
Second: CTGTTCAA
The “PBM E-score” value of the first is higher: 0.00258 for the first, -0.0588 for the second.

Compared with CACGCTTC, CCCATTTC is lower in “PBM E-score” value: -0.156 for the first, -0.248 for the second.

First: GTGCGCTA
Second: AAATAGCT
The “PBM E-score” value of the first is higher: 0.117 for the first, -0.0788 for the second.

First: AAACGACT
Second: CTATCATA
The “PBM E-score” value of the first is higher: 0.456 for the first, -0.021 for the second.

Compared with ACTATACT, TTCCCCAA is lower in “PBM E-score” value: 0.152 for the first, -0.188 for the second.

Compared with CAAGTTAA, AACTCAAT is higher in “PBM E-score” value: -0.063 for the first, -0.0483 for the second.

Compared with AACAATGG, GCGAATAC is higher in “PBM E-score” value: -0.0256 for the first, 0.213 for the second.

First: CGGTACCC
Second: AACTGGCA
The “PBM E-score” value of the first is lower: -0.0601 for the first, -0.037 for the second.

First: CCGCATGC
Second: CCCAGCAG
The “PBM E-score” value of the first is higher: -0.106 for the first, -0.127 for the second.

Compared with ATACTTTA, ATCTCTAG is lower in “PBM E-score” value: -0.0548 for the first, -0.129 for the second.

Going from CCGTCCCC to CTGCATAC, the “PBM E-score” value rises from -0.22 to 0.14.

Going from TAGACAAA to AATGTTCG, the “PBM E-score” value rises from -0.101 to 0.091.

Going from CCAGGCCA to GAGAGGCC, the “PBM E-score” value rises from -0.342 to -0.193.

Going from AATTGTGT to GGTTGATA, the “PBM E-score” value falls from 0.0215 to -0.0899.

First: CGCGCTTA
Second: CATTTACA
The “PBM E-score” value of the first is higher: 0.16 for the first, -0.155 for the second.

Compared with CTAGTTTA, AGGACGAG is lower in “PBM E-score” value: -0.0635 for the first, -0.265 for the second.

Compared with ACTCATAT, AAAGTGGA is lower in “PBM E-score” value: -0.0667 for the first, -0.277 for the second.

First: CGTGTTAG
Second: GCATGTTA
The “PBM E-score” value of the first is higher: 0.123 for the first, 0.0537 for the second.

First: GAAAGGTC
Second: ACTTGACG
The “PBM E-score” value of the first is lower: -0.0457 for the first, -0.0403 for the second.

Compared with ACCCTCTG, CTTTGCGA is higher in “PBM E-score” value: -0.236 for the first, 0.146 for the second.

Going from AAGGCCTA to ACGATGCC, the “PBM E-score” value rises from -0.32 to 0.238.

Going from ATCAACAA to CTAAAGCC, the “PBM E-score” value falls from 0.135 to -0.244.

Going from ATAAGTTG to ACGACGTA, the “PBM E-score” value rises from -0.0732 to 0.413.

Compared with ATACGGTG, AACTACCT is lower in “PBM E-score” value: 0.408 for the first, -0.152 for the second.

Compared with CCGGTAAC, GCGCAACA is lower in “PBM E-score” value: 0.0801 for the first, -0.19 for the second.

First: ATGAAATG
Second: GGCTGAAC
The “PBM E-score” value of the first is lower: -0.185 for the first, 0.0193 for the second.

Compared with GCGTCTTA, CCGACACC is higher in “PBM E-score” value: -0.0268 for the first, 0.0358 for the second.

Compared with AGGAAGTG, GTACGTGA is higher in “PBM E-score” value: -0.0944 for the first, 0.327 for the second.

Compared with AGTTCATC, AAGGATGT is higher in “PBM E-score” value: -0.246 for the first, -0.186 for the second.

Compared with GGCGGGTA, CACCGTTA is higher in “PBM E-score” value: -0.00895 for the first, 0.199 for the second.

Compared with AGGCTAAA, CCGGCAAG is higher in “PBM E-score” value: -0.0397 for the first, -0.0372 for the second.

Compared with GTCTATGA, AAATATTG is higher in “PBM E-score” value: -0.0543 for the first, 0.0554 for the second.

Going from AATGATTA to AAGGATCC, the “PBM E-score” value falls from -0.0182 to -0.0448.

Compared with GGCGACAC, CGTCTCGA is higher in “PBM E-score” value: -0.0467 for the first, 0.0222 for the second.

Compared with GACATTCC, AGGCGCTA is higher in “PBM E-score” value: -0.0735 for the first, -0.056 for the second.

First: CCGCCCAC
Second: CACTCATG
The “PBM E-score” value of the first is higher: 0.00393 for the first, -0.147 for the second.

First: CTTGCACC
Second: ACGCACAG
The “PBM E-score” value of the first is higher: 0.0237 for the first, -0.0832 for the second.

First: CAAAACAA
Second: GGGTGACC
The “PBM E-score” value of the first is lower: -0.318 for the first, -0.141 for the second.

Going from CCTGGGAG to AAGGGCTA, the “PBM E-score” value rises from -0.287 to -0.0638.

Compared with CGAGGATC, CGAACAGA is lower in “PBM E-score” value: 0.175 for the first, 0.171 for the second.

Compared with ACCGACAT, GTCGCGAA is lower in “PBM E-score” value: 0.199 for the first, 0.181 for the second.

First: ACCAAACC
Second: TATCCGAA
The “PBM E-score” value of the first is lower: -0.0475 for the first, 0.262 for the second.

First: CCGGGTTC
Second: GAGAGCCA
The “PBM E-score” value of the first is higher: 0.116 for the first, -0.0367 for the second.

First: CCAGGCTC
Second: GCCAGGTA
The “PBM E-score” value of the first is lower: -0.129 for the first, 0.0753 for the second.

For AAGATCAC, the “PBM E-score” value was -0.0374.
